Data as given in PubChem BioAssay AID2546 (National Center for Advancing Translational Sciences (NCATS), 2010).
Among all 310,000 compounds or so, about 11,000 (3.5%) were called active. The inconclusive results got no clear call from the source; some entries with a clear call stand among them for comparison. Calls come from the whole dose curve; as a rule, active = well fitted inhibition curve with a large enough effect; inconclusive = small, poorly fitted or top-dose-only effect, or effect the other way; inactive = flat fitted curve, though single readings scatter. Potencies of inconclusive entries are left out as doubtful fits.

assay: VP16 counterscreen qHTS for inhibitors of ROR gamma transcriptional activity; conditions: Drosophila S2 Gal4-VP16 UAS-luciferase, luminescence, 20 h; activity, negative = inhibition: at 53.6 µM (top of the series);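 note: Gal4-VP16 expression switched on by copper sulfate through the metallothionein promoter; nearly all actives have a fitted effect of over 50% in size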
% is set by controls: 0 for no effect and ±100 for the full control effect; potency is the fitted concentration of half-maximal effect; tags give direction and shape of the fitted curve.

Q: With `COc1ccc2nc(C)cc(Sc3nc4ccccc4s3)c2c1` as the compound, how does the Potency read?
A: inconclusive [inhibitor, single point]

Q: With `CNC(=S)N/N=C(\C)c1cccc([N+](=O)[O-])c1` as the compound, how does the Potency read?
A: active: 4.47 µM

Q: Which Potency does the source give for `O=C(NCc1ccco1)c1cc([N+](=O)[O-])ccc1N1CCCCC1` here?
A: inconclusive [activator, single point]

Q: Which “activity, negative = inhibition” value does the source give for `CN1CCN(c2nc3ccccn3c(=O)c2C=C(C#N)C#N)CC1` here?
A: inactive: 8.09%

Q: For `CC(C)(C)c1ccc(Oc2ccc(NC(=O)c3ccco3)cn2)cc1`, which Potency is on record?
A: inconclusive [inhibitor, single point]

Q: With `CC(=O)c1c(N2CCN(c3cccc(Cl)c3)CC2)nc(=S)n(-c2ccccc2)c1C` as the compound, how does the Potency read?
A: inconclusive [inhibitor, single point]

Q: For `COc1ccccc1NS(=O)(=O)c1ccc2oc(SCc3ccc(F)cc3)nc2c1`, which Potency is on record?
A: inconclusive [inhibitor, partial curve]

Q: With `CC1=NN(C(N)=S)C(=O)C1N=Nc1ccccc1C` (stereo not drawn) as the compound, how does the Potency read?
A: active: 0.0447 µM

Q: With `COc1ccc(N=[N+]([O-])c2ccc(OC)cc2)cc1` as the compound, how does the Potency read?
A: inconclusive [inhibitor, single point]

Q: Which Potency does the source give for `Cc1ccc(-n2cc(CN(C)Cc3ncc[nH]3)c(-c3cccc(C)c3)n2)cc1` here?
A: active: 6.31 µM

Q: With `CC(C)(C)c1ccc(OCc2ccc(C(=O)N3CCOCC3)o2)cc1` as the compound, how does the Potency read?
A: inconclusive [inhibitor, single point]

Q: For `CCOc1ccc(S(=O)(=O)Nc2cccc(OC)c2)cc1`, which Potency is on record?
A: active: 17.8 µM

Q: Which Potency does the source give for `COc1ccc(/C=N/NC(=O)c2ccccc2O)cc1Cn1cc(Cl)cn1` here?
A: active: 14.1 µM

Q: With `COc1ccc(O)c(/C=N/NC(=O)c2c(C)nnn2-c2nonc2N)c1` as the compound, how does the Potency read?
A: inconclusive [inhibitor, single point]

Q: Which Potency does the source give for `COc1cc(/C=N/Nc2nc(Nc3ccc(C)cc3)nc(-n3nc(C)cc3C)n2)cc(OC)c1OC` here?
A: inconclusive [inhibitor, single point]

Q: With `CC(=O)N/C(=C\c1ccccc1)C(=O)OCc1ccc(F)cc1` as the compound, how does the Potency read?
A: inconclusive [inhibitor, partial curve]

Q: With `CCN(CC)CCCNC(=O)/C=C/C(=O)O` as the compound, how does the “activity, negative = inhibition” value read?
A: inactive: -11.5%

Q: With `CC(C)COC(=O)c1ccc2c(c1O)C(=O)c1ccccc1C2=O` as the compound, how does the Potency read?
A: inconclusive [inhibitor, full curve, poor fit]

Q: With `CC1CN(S(=O)(=O)c2ccc(C(=O)NCCCn3ccnc3)cc2)CC(C)O1` (stereo not drawn) as the compound, how does the activity, negative = inhibition read?
A: inactive: -5.38% [at 10 µM]

Q: With `CC1=NN(c2nc(-c3ccc(Cl)cc3)cs2)C(=O)C1` as the compound, how does the Potency read?
A: inconclusive [inhibitor, single point]

Q: Which Potency does the source give for `O=C1CC(c2ccc(F)cc2)c2cc3c(cc2N1)CCC3` (stereo not drawn) here?
A: inconclusive [inhibitor, single point]

Q: Which Potency does the source give for `CCN(CC)S(=O)(=O)c1ccc(NC(=S)NC(=O)C(C)C)cc1` here?
A: inconclusive [inhibitor, single point]

Q: For `c1ccc2c(c1)[nH]c1c(N3CCSCC3)ncnc12`, which “activity, negative = inhibition” value is on record?
A: inactive: -0.264%

Q: With `C/C=C/C=C/C(=O)N1CC2(CC(c3cccc(NC(=O)/C=C/C)c3)=NO2)C[C@@H]1C(N)=O` (stereo partly drawn) as the compound, how does the “activity, negative = inhibition” value read?
A: inactive: -2.57%

Q: With `O=C(c1cccnc1)N1N=C(C2CC2)CC1(O)C(F)(F)F` (stereo not drawn) as the compound, how does the activity, negative = inhibition read?
A: inactive: -1.29% [at 10 µM]

Q: With `CCOc1ccc(NC(=O)CN2C(=O)c3ccccc3C2=O)cc1` as the compound, how does the “activity, negative = inhibition” value read?
A: inactive: -2.37%

Q: Which “activity, negative = inhibition” value does the source give for `COc1ccnc2c1c(=O)n(Cc1ccc(Cl)cc1Cl)c(=O)n2C` here?
A: inactive: 3.16%

Q: For `O=C(Nc1ccc(Cl)cc1)Nc1ccccc1CC[N+](=O)[O-]`, which “activity, negative = inhibition” value is on record?
A: inactive: -3.06%

Q: For `Cc1ccc(C(=O)c2sc3nc4c(cc3c2N)CCC4)cc1`, which Potency is on record?
A: inconclusive [activator, full curve, poor fit]

Q: Which Potency does the source give for `Cc1cnn(-c2nc(-c3ccccc3)cc(-c3ccccc3)n2)c1` here?
A: active: 11.2 µM

Q: For `COc1ccccc1N1CCN(Cc2ccco2)CC1`, which “activity, negative = inhibition” value is on record?
A: inactive: -5.45%

Q: Which “activity, negative = inhibition” value does the source give for `Cc1cccc(N2CCN(C(=O)c3ccc(CNc4c(N5CCC(C)CC5)c(=O)c4=O)cc3)CC2)c1C` here?
A: inactive: -8.63%

Q: With `COc1ccc(N2CCN(CCC(=O)c3ccc4ccccc4c3)CC2)cc1` as the compound, how does the Potency read?
A: inconclusive [inhibitor, single point]

Q: For `Cc1ccc(CNC(=O)COC(=O)c2ccc(Cl)c(N)c2)cc1`, which Potency is on record?
A: inconclusive [inhibitor, partial curve, poor fit]

Q: For `CCc1nc2c(sc3nc4c(cc32)COC(C)(C)C4)c(=O)n1Cc1ccccc1`, which “activity, negative = inhibition” value is on record?
A: inactive: -2.84%

Q: With `CCn1c(=O)cc(OCC(=O)NCCCN2CCN(c3cccc(Cl)c3)CC2)c2ccccc21` as the compound, how does the “activity, negative = inhibition” value read?
A: inactive: -3.73%

Q: For `O=S(=O)(NCC1CCCO1)c1ccc(-c2ccc(Cl)cc2)cc1` (stereo not drawn), which Potency is on record?
A: inconclusive [inhibitor, single point]

Q: For `CC(OC(=O)c1ccccc1O)C(=O)Nc1cccc(Cl)c1` (stereo not drawn), which “activity, negative = inhibition” value is on record?
A: inactive: -18%

Q: Which “activity, negative = inhibition” value does the source give for `Cc1ccc(S(=O)(=O)NCC(=O)NCC(=O)OCc2c(F)cccc2Cl)cc1` here?
A: inactive: -2.4%

Q: For `O=S(=O)(c1ccc(Br)cc1)c1cnc2ccccc2n1`, which Potency is on record?
A: inconclusive [inhibitor, partial curve]

Q: For `CC1CCC(=O)N(CCOc2ccccc2)CC1` (stereo not drawn), which “activity, negative = inhibition” value is on record?
A: inactive: 1.25%

Q: Which Potency does the source give for `Cc1cccc(CC2S/C(=N/N=C/c3ccco3)N(c3ccccc3)C2=O)c1` (stereo not drawn) here?
A: inconclusive [inhibitor, single point]

Q: For `COc1ccc(-c2cc3cccc(OC)c3oc2=O)cc1`, which Potency is on record?
A: inconclusive [inhibitor, single point]

Q: With `COc1cc(/C=N/O)cc(Br)c1OCc1ccc(Cl)cc1` as the compound, how does the Potency read?
A: inconclusive [inhibitor, partial curve]

Q: For `CCCCCOc1ccc(C(=O)CCN2CCOCC2)cc1`, which Potency is on record?
A: inconclusive [inhibitor, single point]

Q: For `CCOc1ccc(C2C=C(c3ccc(F)cc3)Nc3ncnn32)cc1` (stereo not drawn), which Potency is on record?
A: inconclusive [inhibitor, single point]

Q: For `N#CC(C#N)=C1C=CC=CN1/C(=C\c1ccco1)C(=O)c1ccc(Cl)cc1`, which Potency is on record?
A: active: 1.12 µM

Q: Which Potency does the source give for `CCc1ccc(Nc2nnc(SCC(=O)Nc3cccnc3Cl)s2)cc1` here?
A: inconclusive [inhibitor, single point]

Q: Which Potency does the source give for `CC(C)(C)C1CCc2onc(C(=O)Nc3cccc(O)c3)c2C1` (stereo not drawn) here?
A: inconclusive [inhibitor, single point]

Q: With `COc1ccc(NC(=O)Nc2ccc(Cc3ccncc3)cc2)c(OC)c1` as the compound, how does the Potency read?
A: inconclusive [activator, single point]

Q: Which Potency does the source give for `CCCN1CCN(CCCNC(=O)c2cc3c(=O)[nH]c4ccccc4c3s2)CC1` here?
A: inconclusive [inhibitor, single point]

Q: For `COc1ccccc1Cn1nnc2c(=O)[nH]c(C3CCN(C(=O)c4ccc(C)cc4)CC3)nc21`, which “activity, negative = inhibition” value is on record?
A: inactive: -1.45%

Q: Which Potency does the source give for `Nc1c(C(=O)N2CCOCC2)sc2nc3c(cc12)CCCC3` here?
A: inconclusive [inhibitor, full curve, poor fit]

Q: Which Potency does the source give for `Nc1c(-c2cccs2)cnn1-c1nc(-c2ccc(Cl)cc2Cl)cs1` here?
A: inconclusive [inhibitor, single point]

Q: Which Potency does the source give for `O=C(NC(=S)Nc1ccccc1N1CCOCC1)c1ccc(-c2cccc(Cl)c2)o1` here?
A: active: 5.62 µM

Q: For `O=C(Nc1ccc(Cl)cc1)c1cccs1`, which Potency is on record?
A: inconclusive [activator, single point]

Q: Which Potency does the source give for `CCOc1ccc2nc(N/C(N)=N/C(=S)Nc3cccc(C)c3)nc(C)c2c1` here?
A: active: 3.55 µM

Q: For `Cn1cc(C(=O)N/N=C/C=C/c2ccccc2)ccc1=O`, which Potency is on record?
A: inconclusive [inhibitor, single point]

Q: For `Cc1cc(=O)[nH]c(N/N=C/c2ccc(Br)s2)n1`, which Potency is on record?
A: inconclusive [inhibitor, single point]

Q: Which Potency does the source give for `COc1cccc(NC(=O)C2CCN(Cc3cnn(-c4ccccc4)c3-n3cccc3)CC2)c1` here?
A: inconclusive [inhibitor, single point]

Q: With `COc1ccc(-c2nc(-c3ccccc3)c(-c3cccs3)[nH]2)cc1OC` as the compound, how does the Potency read?
A: inconclusive [inhibitor, single point]

Q: With `Cc1cc(C)nc(Sc2ccc([N+](=O)[O-])cc2[N+](=O)[O-])n1` as the compound, how does the Potency read?
A: inconclusive [inhibitor, single point]

Q: Which Potency does the source give for `S=c1[nH]nc(COc2ccc(Cl)cc2)n1Cc1ccco1` here?
A: inconclusive [inhibitor, full curve, poor fit]

Q: For `COc1ccc(OC)c(NC(=O)c2cc3n(n2)C(C(F)(F)F)CC(c2ccc4c(c2)OCO4)N3)c1` (stereo not drawn), which “activity, negative = inhibition” value is on record?
A: inactive: -13.3%

Q: For `Cc1ccc(-c2noc(CCC(=O)NC3CCN(Cc4ccccc4)CC3)n2)cc1`, which Potency is on record?
A: inconclusive [inhibitor, partial curve, poor fit]

Q: With `CCCCc1cc(=O)oc2cc(O)cc(O)c12` as the compound, how does the Potency read?
A: active: 22.4 µM

Q: Which “activity, negative = inhibition” value does the source give for `CCOc1ccc(-c2cc(C(=O)NCCCn3ccnc3)c3ccccc3n2)cc1` here?
A: inactive: 2.16%

Q: With `COc1cc(C(=O)N/N=C/c2cc([N+](=O)[O-])cs2)cc(OC)c1OC` as the compound, how does the Potency read?
A: inconclusive [inhibitor, partial curve]

Q: Which Potency does the source give for `NC(=O)CN1C(=O)NC2(CCCc3ccccc32)C1=O` (stereo not drawn) here?
A: inconclusive [inhibitor, single point]

Q: With `COc1ccc(OC)c(Nc2nc(-c3sc(NC(=O)C(C)(C)C)nc3C)cs2)c1` as the compound, how does the Potency read?
A: active: 11.2 µM

Q: Which “activity, negative = inhibition” value does the source give for `COc1ccc(C2c3ccc(O)cc3Oc3ncn4nc(-c5ccncc5)nc4c32)cc1OC` (stereo not drawn) here?
A: inactive: -4.47%

Q: Which Potency does the source give for `COc1cc([N+](=O)[O-])ccc1NC(=O)CCCOc1cccc(C)c1C` here?
A: inconclusive [inhibitor, single point]

Q: Which Potency does the source give for `O=C(Nc1ccc(N2CCOCC2)c(Cl)c1)c1ccc([N+](=O)[O-])o1` here?
A: inconclusive [inhibitor, single point]
